# PubChem BioAssay AID1347165 (National Center for Advancing Translational Sciences (NCATS), 2019)
# The campaign covered roughly 220,000 compounds. About 5,700 (2.6%) were called active. This list was built around the results that the source calls inconclusive (neither active nor inactive); the mix of calls is not that of the screen. Calls come from the whole dose curve; as a rule, active = well fitted inhibition curve with a large enough effect; inconclusive = small, poorly fitted or top-dose-only effect; inactive = no such curve, though single readings can be large or run the other way. Potencies of inconclusive entries are doubtful fits and often do not repeat.
# Biological target: Lysine-specific demethylase 5B (Homo sapiens) (UniProt Q9UGL1)
# Chain of UniProt Q9UGL1 (Q9UGL1 whole entry, looked up): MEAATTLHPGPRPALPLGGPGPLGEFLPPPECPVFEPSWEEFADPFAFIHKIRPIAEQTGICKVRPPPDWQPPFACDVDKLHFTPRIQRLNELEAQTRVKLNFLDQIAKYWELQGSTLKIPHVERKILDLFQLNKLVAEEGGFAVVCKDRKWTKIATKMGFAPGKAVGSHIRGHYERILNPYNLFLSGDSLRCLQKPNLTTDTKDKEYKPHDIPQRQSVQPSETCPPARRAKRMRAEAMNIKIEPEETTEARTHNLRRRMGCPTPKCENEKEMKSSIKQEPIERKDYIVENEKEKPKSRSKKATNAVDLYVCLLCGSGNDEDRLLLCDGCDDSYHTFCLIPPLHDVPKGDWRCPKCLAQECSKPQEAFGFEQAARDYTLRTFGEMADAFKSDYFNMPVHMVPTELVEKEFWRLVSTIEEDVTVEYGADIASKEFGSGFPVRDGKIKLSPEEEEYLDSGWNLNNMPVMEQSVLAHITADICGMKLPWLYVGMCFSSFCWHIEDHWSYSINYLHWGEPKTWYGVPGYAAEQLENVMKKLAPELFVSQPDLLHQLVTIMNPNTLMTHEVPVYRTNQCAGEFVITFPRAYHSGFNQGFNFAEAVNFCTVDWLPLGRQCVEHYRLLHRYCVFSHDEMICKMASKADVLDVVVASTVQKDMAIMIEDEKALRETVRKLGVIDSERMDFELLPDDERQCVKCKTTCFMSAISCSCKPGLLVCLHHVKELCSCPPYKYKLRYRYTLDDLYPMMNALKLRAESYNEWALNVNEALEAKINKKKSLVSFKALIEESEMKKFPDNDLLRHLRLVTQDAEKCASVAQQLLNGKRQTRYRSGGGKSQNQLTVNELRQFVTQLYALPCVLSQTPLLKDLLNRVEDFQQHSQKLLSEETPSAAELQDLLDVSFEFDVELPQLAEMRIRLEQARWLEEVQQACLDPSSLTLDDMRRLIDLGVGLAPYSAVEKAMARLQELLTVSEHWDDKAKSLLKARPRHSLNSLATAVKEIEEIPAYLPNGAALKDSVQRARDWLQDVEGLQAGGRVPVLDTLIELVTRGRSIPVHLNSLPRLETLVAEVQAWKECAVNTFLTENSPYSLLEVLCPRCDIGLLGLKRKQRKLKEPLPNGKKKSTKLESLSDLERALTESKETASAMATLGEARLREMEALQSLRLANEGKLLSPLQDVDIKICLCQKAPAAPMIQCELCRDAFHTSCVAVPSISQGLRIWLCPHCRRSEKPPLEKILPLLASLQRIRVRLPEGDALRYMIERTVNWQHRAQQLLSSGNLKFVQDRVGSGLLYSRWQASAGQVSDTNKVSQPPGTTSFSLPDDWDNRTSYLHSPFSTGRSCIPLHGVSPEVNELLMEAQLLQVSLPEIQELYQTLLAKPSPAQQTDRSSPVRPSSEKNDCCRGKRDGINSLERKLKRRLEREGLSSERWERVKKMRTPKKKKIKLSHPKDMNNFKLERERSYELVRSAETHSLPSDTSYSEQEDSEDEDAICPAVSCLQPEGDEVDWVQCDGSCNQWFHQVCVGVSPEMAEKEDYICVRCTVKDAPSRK
# Test: Primary screen for KDM5B Histone Demethylases FDH-coupled qHTS; note: nearly all actives have a fitted effect of over 70% in size; for activity change, negative = inhibition: 0% is about no effect
# Conditions: FDH-coupled NADH fluorescence (FDH is formaldehyde dehydrogenase); activity change, negative = inhibition: at 57.7 µM (top of the series) unless noted
# Method in brief: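 Coupled FDH/NAD⁺ fluorescence readout. KDM5BΔAP 200 nM final; compound titration, 10 min RT preincubation; substrate mix 12.5 µM H3K4me3, 25 µM 2-OG, 50 µM Fe(II), 100 µM ascorbate, 0.25 mM NAD⁺, 0.25 U/mL FDH; ΔRFU over 30 min.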
# Potency is the fitted concentration of half-maximal effect; tags give direction and shape of the fitted curve.
Structure (SMILES),Potency,"activity change, negative = inhibition"
COCCOc1cc(-c2noc([C@@H]3CCCN3C3CCC3)n2)ccn1,"inconclusive: 39.8 µM [inhibitor, single point]",–
CC1(C)OC(c2ccccc2)=C/C(=C\C=N\NC(=O)c2ccncc2)O1,"inconclusive: 35.5 µM [inhibitor, partial curve, poor fit]",–
Cc1ccc(C)c(Cn2ccn3nc4c(c3c2=O)CCCC4)c1,–,inactive: -11.8%
O=C(CC1CC2CCC1C2)Nc1ccc(-c2nccs2)cc1 (configuration not stated),"inconclusive: 12.6 µM [inhibitor, partial curve, poor fit]",–
O=C(NCCc1ccccn1)c1ccc(C(F)(F)F)cc1,–,inactive: 4.24%
Cc1ccc2cc(C(=O)NC3CCS(=O)(=O)C3)c(C)nc2c1 (configuration not stated),–,inactive: -8.16%
CCOc1cc(C(C(=O)NCC2CCCO2)N(C(=O)Cn2nnc3ccccc32)c2ccccc2C(C)=O)ccc1O (configuration not stated),"inconclusive: 25.1 µM [inhibitor, partial curve, poor fit]",–
CCSc1oc(-c2ccc(C)cc2)nc1S(=O)(=O)c1ccccc1,"inconclusive: 25.1 µM [inhibitor, single point]",–
S=C1NC(C23CC4CC(CC(C4)C2)C3)=CC(c2ccccc2Cl)N1 (configuration not stated),"inconclusive: 31.6 µM [inhibitor, partial curve, poor fit]",–
Cc1cc(C[C@@H]2COC[C@@H]2NC(=O)c2ccc(-c3ccccc3Cl)o2)on1,"inconclusive: 28.2 µM [inhibitor, single point]",–
CNc1c(NC(=O)c2cccc(Cl)c2)c(=O)oc2ccccc12,–,inactive: -6.25%
Cc1nc(-c2ccc(F)cc2)sc1CCNC(=O)c1ccc(C(C)(C)C)cc1,"inconclusive: 28.2 µM [inhibitor, partial curve, poor fit]",–
CC(=O)Nc1cccc(-c2cn3cccnc3n2)c1,"inconclusive: 28.2 µM [inhibitor, partial curve, poor fit]",–
Cc1ccc(NC(=O)Cn2c(=O)n(Cc3ccccc3)c(=O)c3c2c2cc(C)ccc2n3C)cc1,"inconclusive: 17.8 µM [inhibitor, partial curve, poor fit]",–
Cc1cccc(NC(=O)c2c(C)oc3ncnc(N4CCCCC4)c23)c1C,–,inconclusive: -36.4% [inhibitor]
CCc1nncn1C1CCN(C(=O)c2cc(-c3cccs3)[nH]n2)C1 (configuration not stated),"inconclusive: 22.4 µM [inhibitor, partial curve]",–
CCc1cccc(C)c1Nc1c(-c2ccccc2O)nc2cnccn12,"inconclusive: 22.4 µM [inhibitor, single point]",–
CCOC(=O)N1CCN(C(=O)Cn2ncc3c4ccccc4n(Cc4ccc(F)cc4)c3c2=O)CC1,"inconclusive: 39.8 µM [inhibitor, single point]",–
O=C(COc1ccc(F)cc1)Nc1ccc(Cl)c(-c2nc3ccccc3[nH]2)c1,"inconclusive: 28.2 µM [inhibitor, partial curve, poor fit]",–
O=C(NCC1Cn2cccc2CN1Cc1ccccc1)c1ccoc1 (configuration not stated),active: 28.2 µM,–
N#Cc1nc(-c2ccco2)oc1N1CCN(CC(=O)N2CCOCC2)CC1,"inconclusive: 17.8 µM [inhibitor, partial curve, poor fit]",–
Cc1nn(-c2ccccc2)c2sc(C(=O)Nc3cccc(Br)c3)cc12,"inconclusive: 14.1 µM [inhibitor, partial curve, poor fit]",–
O=C(Cc1ccccc1)N1CCC2(CC1)COc1ccccc1[S+](=O)([O-])N2,"inconclusive: 50.1 µM [inhibitor, partial curve, poor fit]",–

Structure (SMILES),Potency,"activity change, negative = inhibition"
CS(=O)(=O)N(Cc1csc(-c2cccs2)n1)C1CCN(C(=O)c2ccccc2)CC1,"inconclusive: 22.4 µM [inhibitor, single point]",–
Cc1ccc(NC(=O)c2cc(S(=O)(=O)N3CCCCC3)c[nH]2)cc1F,"inconclusive: 25.1 µM [inhibitor, partial curve, poor fit]",–
COCc1ccc2c(c1)c(OC(C)(C)C(=O)NC1CCOCC1)nn2Cc1ccccc1,active: 28.2 µM,–
CC(=O)c1cccc(NC(=O)CSc2ccc(-c3ccco3)nn2)c1,"inconclusive: 12.6 µM [inhibitor, partial curve, poor fit]",–
CC(C(=O)Nc1ccc(C#N)cc1)n1nnc(-c2ccc(F)cc2)n1 (configuration not stated),–,inactive: -8.47%
O=[N+]([O-])c1ccccc1S(=O)(=O)Nc1cccc(-n2cccn2)c1,–,inactive: -10%
O=C(CSc1nnc2ccc(-c3cccs3)nn12)N1CCOCC1,"inconclusive: 25.1 µM [inhibitor, partial curve, poor fit]",–
COc1ccc(-c2cnc3c(-c4ccc(F)cc4)cnn3c2N)cc1,"inconclusive: 14.1 µM [inhibitor, partial curve, poor fit]",–
O=C(CSc1cc(Cl)ccc1Cl)NC1CCS(=O)(=O)C1 (configuration not stated),–,inactive: 17.1%
O=C(CCC[C@@H]1[C@H]2CCCN3CCC[C@@H](CN1C(=O)C1CCC1)[C@@H]23)NCC1CC1,–,inactive: 3.57%
CCC(C)C(=O)NCCc1c[nH]c2ccc(C)cc12 (configuration not stated),–,inactive: 24.7%
CCCCC1(C)NC(=O)N(c2ccc(Br)cc2)N1 (configuration not stated),–,inactive: -0.807%
N#Cc1c(Nc2ccccc2)s[nH]c1=O,"inconclusive: 17.8 µM [inhibitor, partial curve, poor fit]",–
COc1ccc(CCNC(=O)c2ccc3nc4cc(Cl)ccc4c(=O)n3c2)cc1OC,"inconclusive: 20 µM [inhibitor, partial curve, poor fit]",–
Cc1cc(C(=O)NCc2ccnc3[nH]ccc23)ccc1Cl,"inconclusive: 31.6 µM [inhibitor, single point]",–
COc1cccc2cc(C(=O)OCC(=O)NCc3ccc4c(c3)OCO4)c(=O)oc12,–,inactive: -17.6%
COc1ccccc1Nc1cnc2ccc(-c3ccc(F)cc3)nn12,"inconclusive: 56.2 µM [inhibitor, single point]",–
CC(=O)N1Cc2ccccc2OC2(CCN(C(=O)c3ccnc(N)c3)CC2)C1,active: 79.4 µM,–
COCCNC(=O)[C@@H]1C[C@H](Oc2cccnc2)CN1C(=O)c1ccoc1,–,inactive: -31.6%
N#Cc1ccc(O[C@@H]2CCOC[C@H]2NC(=O)CCN2CCCC2=O)cc1,–,inactive: -3.23%
Cc1ccc(CCSc2cc(C(C)(C)C)c(F)c(C(C)(C)C)c2)cn1,"inconclusive: 10 µM [inhibitor, partial curve, poor fit]",–
CN1CCN(C[C@@H]2CN(C(=O)c3ccc4ccccc4c3)C[C@@H]2CO)CC1,–,inactive: -2.07%
CN(C)CCC(OC(=O)C1(c2ccccc2)CCCC1)c1ccccc1 (configuration not stated),–,inactive: 35.3%

Structure (SMILES),Potency,"activity change, negative = inhibition"
Cc1noc2c(NCCN3CCOCC3)cc(-c3ccsc3)nc12,–,inactive: -25% [at 86.2 µM]
CCCN1CCCCC12Cc1ccccc1CN(C(=O)C1CCCC1)C2 (configuration not stated),active: 50.1 µM,–
N#Cc1nc(-c2ccco2)oc1N1CCN(C(=O)c2cccc(Cl)c2)CC1,–,inactive: 842%
CCCCn1c(=O)nc2n(-c3ccc(F)cc3)c3ccccc3cc-2c1=O,"inconclusive: 15.8 µM [inhibitor, partial curve, poor fit]",–
CN(C1CCc2nn(CC3CC3)c(=O)n2CC1)S(=O)(=O)Cc1ccccc1 (configuration not stated),–,inactive: -27.9%
CC(Sc1nc2c([nH]c3ccccc32)c(=O)n1-c1ccccc1)c1ccccc1 (configuration not stated),"inconclusive: 15.8 µM [inhibitor, partial curve, poor fit]",–
COc1ccc(-n2nc3n(c2=O)CCN(Cc2cccc4ccccc24)C3)cc1,"inconclusive: 56.2 µM [inhibitor, partial curve, poor fit]",–
CN1CCC2(C1)CN(Cc1ccccc1)c1ccc(C(=O)Nc3ccn(C)n3)cc12 (configuration not stated),"inconclusive: 15.8 µM [inhibitor, partial curve]",–
O=C(CCC1CCCN(S(=O)(=O)c2ccccc2)C1)N1CCN(c2ccccn2)CC1 (configuration not stated),active: 22.4 µM,–
Cc1ccc(C)c(NC(=O)CN(C)C(=O)c2cc(S(=O)(=O)N3CCOCC3)ccc2N2CCCC2)c1,"inconclusive: 39.8 µM [inhibitor, partial curve, poor fit]",–
CC(=O)c1ccc(/C=C/c2ccccc2)cc1,"inconclusive: 22.4 µM [inhibitor, partial curve, poor fit]",–
CC1CCC(NC(=O)CSc2ncnc3c2cnn3-c2ccccc2)CC1 (configuration not stated),–,inactive: -13.8%
O=C(/C=C/c1ccc(O)cc1)c1ccccc1,"inconclusive: 20 µM [inhibitor, single point]",–
CCC(CC)c1cc([C@H]2CN3CC[C@H]2C[C@@H]3CNC(=O)c2cc(OC)c(OC)c(OC)c2)nc(-c2ccncc2)n1,"inconclusive: 25.1 µM [inhibitor, single point]",–
COc1cc(OC)c(NC(=O)N2CC=C(c3c[nH]c4ccccc34)CC2)cc1Cl,"inconclusive: 22.4 µM [inhibitor, partial curve, poor fit]",–
COc1cccc(C(=O)Nc2ccc(C(=O)OCc3cc(=O)n4nc(C5CC5)sc4n3)cc2)c1,"inconclusive: 28.2 µM [inhibitor, single point]",–
Cn1c(=O)cc(SCC(=O)N2CCN(c3ccccc3)CC2)c2ccccc21,"inconclusive: 39.8 µM [inhibitor, single point]",–
O=C(COC(=O)c1c[nH]c2ccccc12)NC(c1ccccc1)c1ccccc1,–,inactive: -9.99%
CC(=O)Nc1ccc(Nc2ncnc3sc4c(c23)CCCC4)cc1,"inconclusive: 31.6 µM [inhibitor, partial curve, poor fit]",–
CN1CCN(c2ccc(NC(=O)c3cnc4ccccc4n3)cc2)CC1,"inconclusive: 12.6 µM [inhibitor, partial curve, poor fit]",–
Cc1ccc(CNC(=O)c2cc3c(s2)CCN(C(=O)c2ccccc2)C3)cc1,"inconclusive: 39.8 µM [inhibitor, single point]",–
